According to the supplement of paper PMC4967469:
pIC50: −log10 of the molar value. By IC50 is meant the dose at which the fit gives 50% viability; fits outside the tested doses are given as limits. AUC is the area under the same curve over the 256-fold range up to the top dose, as a fraction; the more sensitive the line, the further below 1. For some assays here: Any top dose called inferred was calculated from the reported fits. For some assays here: An entry number marks a drug with two screens in the source, which often give different values.

Legend:
Assay in all cases: Viability of human cancer cell lines after 72 h of drug (GDSC screen)
MG-132 = compound: CC(C)C[C@@H](C=O)NC(=O)[C@H](CC(C)C)NC(=O)[C@H](CC(C)C)NC(=O)OCc1ccccc1 [MG-132]; settings: top dose 1 µM
Protocol: (§1)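 Human cancer cell lines in 384-well plates, medium with 10% serum, drug for 72 h over a 256-fold dose range (nine 2-fold or five 4-fold steps up to the top dose). Adherent lines were fixed and stained with the nucleic acid dye Syto60, suspension lines read with resazurin; signal relative to control wells, capped at 0 and 100%. One two-parameter sigmoid per drug and line, fitted in a mixed model over all curves with the slope shared within a line.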

AR-42 = compound: CC(C)[C@H](C(=O)Nc1ccc(C(=O)NO)cc1)c1ccccc1 [AR-42]; settings: top dose 5.12 µM; top dose inferred
Protocol: as §1

Sunitinib = compound: CCN(CC)CCNC(=O)c1c(C)[nH]c(/C=C2\C(=O)Nc3ccc(F)cc32)c1C [Sunitinib]; settings: top dose 8 µM
Protocol: as §1

Pazopanib = compound: Cc1ccc(Nc2nccc(N(C)c3ccc4c(C)n(C)nc4c3)n2)cc1S(N)(=O)=O [Pazopanib]; settings: top dose 8 µM
Protocol: as §1

GDC0941 = compound: CS(=O)(=O)N1CCN(Cc2cc3nc(-c4cccc5[nH]ncc45)nc(N4CCOCC4)c3s2)CC1 [GDC0941]; settings: top dose 4 µM; screen: GDSC drug entry 1527; top dose inferred
Protocol: as §1

CEP-701 = compound: C[C@]12O[C@H](C[C@]1(O)CO)n1c3ccccc3c3c4c(c5c6ccccc6n2c5c31)CNC4=O [CEP-701]; settings: top dose 2 µM; top dose inferred
Protocol: as §1

SB 216763 = compound: Cn1cc(C2=C(c3ccc(Cl)cc3Cl)C(=O)NC2=O)c2ccccc21 [SB 216763]; settings: top dose 10 µM; top dose inferred
Protocol: as §1

Cell Line	AUC (MG-132)	pIC50 (MG-132)	AUC (AR-42)	pIC50 (AR-42)	AUC (Sunitinib)	pIC50 (Sunitinib)	AUC (Pazopanib)	pIC50 (Pazopanib)	AUC (GDC0941)	pIC50 (GDC0941)	AUC (CEP-701)	pIC50 (CEP-701)	AUC (SB 216763)	pIC50 (SB 216763)
BC-3 (B-cell lymphoma, suspension)	0.88	6.07	0.429	6.68	0.913	< 5.10	0.976	< 5.10	–	–	–	–	–	–
COLO-829 (melanoma, adherent)	0.683	6.58	0.672	5.91	0.978	< 5.10	0.965	< 5.10	–	–	–	–	–	–
CP67-MEL (melanoma, adherent)	–	–	–	–	0.839	< 5.10	–	–	–	–	–	–	–	–
EHEB (lymphoid neoplasm, suspension)	–	–	–	–	0.923	< 5.10	0.958	< 5.10	0.438	6.80	0.741	6.07	0.977	< 5.00
ES3 (Ewing sarcoma, adherent)	0.955	< 6.00	0.461	6.60	0.94	< 5.10	0.973	< 5.10	0.812	5.64	–	–	–	–
EW-1 (Ewing sarcoma, semi-adherent)	–	–	0.295	7.05	0.79	5.49	0.971	< 5.10	0.928	< 5.40	0.799	6.06	0.989	< 5.00
H-EMC-SS (chondrosarcoma, adherent)	0.876	< 6.00	0.944	< 5.29	0.769	5.41	0.767	5.41	–	–	–	–	–	–
HCC-33 (small cell lung carcinoma, adherent)	0.842	6.15	0.367	6.86	0.966	< 5.10	0.985	< 5.10	–	–	–	–	–	–
HCE-4 (oesophagus, adherent)	–	–	0.965	< 5.29	0.838	5.36	0.964	< 5.10	0.558	6.45	–	–	–	–
HT-144 (melanoma, adherent)	–	–	0.981	< 5.29	0.829	5.24	0.857	5.11	0.82	5.58	–	–	–	–
Hs-445 (Hodgkin lymphoma, suspension)	0.815	6.30	0.566	6.32	0.877	5.16	0.958	< 5.10	0.783	5.81	–	–	–	–
JAR (urogenital system, adherent)	0.923	< 6.00	0.456	6.61	0.763	5.55	0.953	< 5.10	0.893	< 5.40	–	–	–	–
JSC-1 (B-cell lymphoma, suspension)	–	–	0.26	7.18	0.818	5.35	0.971	< 5.10	–	–	0.523	6.84	0.984	< 5.00
KLE (endometrium, adherent)	–	–	0.683	5.86	0.911	< 5.10	0.94	< 5.10	0.675	5.99	0.776	5.88	0.961	< 5.00
KP-N-RT-BM-1 (neuroblastoma, semi-adherent)	–	–	–	–	0.887	< 5.10	–	–	–	–	–	–	–	–
NK-92MI (lymphoid neoplasm, suspension)	0.732	6.57	–	–	0.757	5.59	0.976	< 5.10	–	–	–	–	–	–
SIG-M5 (acute myeloid leukaemia, suspension)	0.803	6.44	0.24	7.14	0.688	5.84	0.99	< 5.10	–	–	–	–	–	–
SJSA-1 (bone, adherent)	0.837	6.10	0.693	5.92	–	–	0.964	< 5.10	0.89	< 5.40	0.589	6.65	0.942	< 5.00
SK-MEL-1 (melanoma, suspension)	0.993	< 6.00	0.718	5.92	–	–	0.993	< 5.10	0.973	< 5.40	0.687	6.42	0.993	< 5.00
SK-MEL-2 (melanoma, adherent)	0.967	< 6.00	0.644	6.09	–	–	0.974	< 5.10	0.89	< 5.40	0.4	7.18	0.943	< 5.00
SK-N-DZ (neuroblastoma, adherent)	0.912	< 6.00	0.708	5.91	–	–	0.679	5.80	0.892	< 5.40	0.633	6.54	0.979	< 5.00
SK-N-FI (neuroblastoma, adherent)	0.861	6.08	0.582	6.27	–	–	0.988	< 5.10	0.861	5.47	0.736	6.23	0.959	< 5.00
SK-UT-1 (soft tissue, adherent)	0.5	7.20	0.969	< 5.29	–	–	0.989	< 5.10	0.715	6.02	0.667	6.46	0.986	< 5.00

Cell Line	AUC (MG-132)	pIC50 (MG-132)	AUC (AR-42)	pIC50 (AR-42)	AUC (Sunitinib)	pIC50 (Sunitinib)	AUC (Pazopanib)	pIC50 (Pazopanib)	AUC (GDC0941)	pIC50 (GDC0941)	AUC (CEP-701)	pIC50 (CEP-701)	AUC (SB 216763)	pIC50 (SB 216763)
SNB75 (glioma, adherent)	0.837	< 6.00	0.792	5.44	–	–	0.714	5.57	0.661	6.06	0.841	< 5.70	0.979	< 5.00
SNU-C1 (large intestine, suspension)	0.977	< 6.00	0.659	5.96	–	–	0.977	< 5.10	0.631	6.17	0.577	6.65	0.98	< 5.00
ST486 (Burkitt lymphoma, suspension)	0.844	6.22	0.345	6.90	–	–	0.971	< 5.10	0.989	< 5.40	0.617	6.60	0.979	< 5.00
SU-DHL-4 (B-cell lymphoma, suspension)	0.697	6.73	0.256	7.09	–	–	0.94	5.15	0.71	6.09	0.748	6.30	0.997	< 5.00
SUP-HD1 (Hodgkin lymphoma, suspension)	–	–	0.398	6.77	0.823	5.36	0.95	< 5.10	0.892	< 5.40	0.478	6.96	0.976	< 5.00
SUP-M2 (anaplastic large cell lymphoma, suspension)	0.812	6.41	0.271	7.06	–	–	0.991	< 5.10	0.519	6.55	0.446	7.04	0.99	< 5.00
SW684 (fibrosarcoma, adherent)	0.782	6.20	0.963	< 5.29	–	–	0.739	5.47	0.833	< 5.40	0.761	5.98	0.889	< 5.00
SW962 (urogenital system, adherent)	0.889	< 6.00	0.655	6.02	–	–	0.888	< 5.10	0.513	6.56	0.534	6.80	0.98	< 5.00
SW982 (soft tissue, adherent)	–	–	0.604	6.20	0.778	5.48	0.854	5.18	0.759	5.84	0.355	7.31	0.935	< 5.00
TE-6 (oesophagus, adherent)	0.895	< 6.00	0.982	< 5.29	–	–	0.984	< 5.10	0.877	< 5.40	0.928	< 5.70	0.983	< 5.00
TE-8 (oesophagus, adherent)	–	–	0.984	< 5.29	0.739	5.59	0.758	5.53	0.801	5.68	0.762	6.12	0.982	< 5.00
TE-9 (oesophagus, adherent)	0.725	6.55	0.984	< 5.29	–	–	0.9	< 5.10	0.815	5.64	0.652	6.47	0.986	< 5.00
TE-11 (oesophagus, adherent)	–	–	0.923	< 5.29	0.705	5.75	0.77	5.55	0.803	5.75	0.656	6.49	0.99	< 5.00
TGBC1TKB (biliary tract, adherent)	0.868	6.04	0.719	5.88	–	–	0.944	< 5.10	0.894	< 5.40	0.909	< 5.70	0.963	< 5.00
TGW (neuroblastoma, adherent)	0.87	6.15	0.224	7.23	–	–	0.988	< 5.10	0.962	< 5.40	0.596	6.66	0.985	< 5.00
TK10 (kidney, adherent)	0.709	6.55	0.967	< 5.29	–	–	0.894	< 5.10	0.689	6.02	0.637	6.49	0.95	< 5.00
TK (B-cell lymphoma, suspension)	0.802	6.36	0.408	6.74	–	–	0.961	< 5.10	0.873	5.49	0.615	6.60	0.99	< 5.00
TUR (B-cell lymphoma, suspension)	0.987	< 6.00	0.395	6.77	–	–	0.939	< 5.10	0.486	6.64	0.338	7.34	0.984	< 5.00
U-698-M (B-cell leukaemia, suspension)	–	–	0.678	6.00	0.97	< 5.10	0.857	5.19	0.785	5.77	0.818	5.95	0.987	< 5.00
WSU-DLCL2 (B-cell lymphoma, suspension)	0.891	6.09	0.862	5.49	–	–	0.912	< 5.10	0.992	< 5.40	0.592	6.67	0.982	< 5.00
YT (lymphoid neoplasm, suspension)	0.968	< 6.00	0.286	7.05	–	–	0.957	< 5.10	0.969	< 5.40	0.35	7.29	0.992	< 5.00
no-10 (glioma, adherent)	0.497	7.21	0.741	5.73	–	–	0.978	< 5.10	0.855	< 5.40	0.906	< 5.70	0.976	< 5.00
no-11 (glioma, adherent)	0.798	6.21	0.845	< 5.29	–	–	0.881	< 5.10	0.87	< 5.40	0.82	5.81	0.968	< 5.00
